Measured values as given in publication PMC4336329 (PLoS ONE, 2015).
The campaign covered roughly 310,000 compounds. About 2,200 (0.71%) showed an effect of 50% or more. The effect is printed as a negative number. The list shows a part of the results.

The compounds below were run against human ether-à-go-go-related gene (hERG) potassium channel (human, UniProt Q12809) (assay: primary screen, population patch clamp on CHO cells stably expressing hERG).
Sequence of human ether-à-go-go-related gene (hERG) potassium channel (Q12809 whole entry, looked up): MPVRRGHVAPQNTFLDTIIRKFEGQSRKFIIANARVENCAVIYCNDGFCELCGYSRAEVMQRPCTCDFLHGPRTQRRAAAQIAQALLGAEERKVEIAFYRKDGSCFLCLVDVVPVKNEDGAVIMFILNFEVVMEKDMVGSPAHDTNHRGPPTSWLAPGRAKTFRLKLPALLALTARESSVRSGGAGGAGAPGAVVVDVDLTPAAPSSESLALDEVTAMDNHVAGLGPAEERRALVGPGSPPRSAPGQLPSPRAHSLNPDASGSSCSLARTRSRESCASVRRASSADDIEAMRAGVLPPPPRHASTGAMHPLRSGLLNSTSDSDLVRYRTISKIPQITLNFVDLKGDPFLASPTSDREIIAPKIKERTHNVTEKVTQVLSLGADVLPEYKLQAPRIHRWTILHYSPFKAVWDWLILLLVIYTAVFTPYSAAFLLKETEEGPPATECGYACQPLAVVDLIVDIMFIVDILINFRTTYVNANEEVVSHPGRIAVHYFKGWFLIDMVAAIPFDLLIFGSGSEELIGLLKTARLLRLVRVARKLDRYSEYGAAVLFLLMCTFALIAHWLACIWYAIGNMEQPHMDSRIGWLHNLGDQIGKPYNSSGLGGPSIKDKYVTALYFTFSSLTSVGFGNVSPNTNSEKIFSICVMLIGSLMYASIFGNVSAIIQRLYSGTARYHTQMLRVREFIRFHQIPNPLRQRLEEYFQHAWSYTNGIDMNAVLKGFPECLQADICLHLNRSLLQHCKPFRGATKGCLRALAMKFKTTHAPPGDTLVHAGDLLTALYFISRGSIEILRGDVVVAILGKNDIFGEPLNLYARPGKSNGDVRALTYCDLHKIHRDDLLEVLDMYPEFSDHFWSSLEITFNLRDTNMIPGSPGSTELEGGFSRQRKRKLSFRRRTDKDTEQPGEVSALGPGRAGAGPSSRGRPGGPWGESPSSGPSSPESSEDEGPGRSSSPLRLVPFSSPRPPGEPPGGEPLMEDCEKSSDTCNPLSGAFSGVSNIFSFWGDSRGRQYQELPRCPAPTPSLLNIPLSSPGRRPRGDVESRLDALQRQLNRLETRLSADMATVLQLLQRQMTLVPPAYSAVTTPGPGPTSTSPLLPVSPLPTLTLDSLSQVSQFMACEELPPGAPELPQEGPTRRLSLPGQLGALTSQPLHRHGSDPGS

| Structure (SMILES) | hERG current change (%, negative = inhibition) at 1uM |
| --- | --- |
| CCn1c(O)c(C=NC2CCCC(C)C2C)sc1=S (centres unmarked) | 23% |
| CN(/N=C/c1ccncc1)C1=NS(=O)(=O)c2ccccc21 | 3.37% |
| CN1CCN(C(=O)/C=C/c2cn(-c3ccccc3)nc2-c2ccc3c(c2)OCCO3)CC1.Cl | 7.65% |
| CCn1cc(S(=O)(=O)Nc2ccc(C)c(Cl)c2)cn1 | 5.45% |
| Cc1ccc(C(=O)O/N=C(\N)Cc2cccc3ccccc23)cc1 | 13.9% |
| COc1cc2c(C(=O)N3CCN(c4cccc(Cl)c4)CC3)cn(C)c(=O)c2cc1OC | -21.3% |
| Cc1nn(Cc2ccccc2)c(Cl)c1/C=C/C(=O)OCC(=O)N1CCCC1=O | -2.01% |
| O=C(Cn1cc(C(F)(F)F)cc(Cl)c1=O)NCc1ccc(Cl)cc1Cl | 7.81% |
| CCN(Cc1cnn(C)c1)C(=O)C1CCC(=O)N(CCc2ccc(OC)cc2)C1 (centres unmarked) | 10.7% |
| O=C(O)c1ccccc1-n1c2ccccc2c2ccccc21 | 11% |
| O=C(NC(NC(=S)Nc1ccc(Cl)c(Cl)c1)C(Cl)(Cl)Cl)c1ccco1 (centres unmarked) | 14.2% |
| COc1cc(C)c(S(=O)(=O)N2CCCC2)cc1C | 11.2% |
| CC(C(=O)NCc1ccco1)c1ccc([N+](=O)[O-])cc1 (centres unmarked) | 5.93% |
| Cc1ccccc1OCCC(=O)N1CCN(S(=O)(=O)c2ccc(Cl)cc2)CC1 | 5.86% |
| O=S(=O)(c1ccccc1)N1CCN=C1SCc1ccccc1Cl | 15.7% |
| COc1cc(C2C(C(C)=O)=C(C)Nc3ncnn32)ccc1O (centres unmarked) | 10.7% |
| CCCCn1nc(NC(=O)COC)c2cc3ccc(C)cc3nc21 | 15.1% |
| CCn1cc(CCCC(=O)NCc2cccnc2)c2ccccc21 | 8.07% |
| O=C(O)CC1(CC(=O)Nc2ccc3sccc3c2)CCCCC1 | 9.18% |
| CC(C)=CC(=O)Nc1nnc(C(C)C)s1 | 11.2% |
| Cc1nnc(NC(=O)CSc2nnc(CC(=O)Nc3ccccc3C)n2C)s1 | 17.4% |
| COc1ccc(CCn2c(C)cc(C(=O)COC(=O)c3ccc(NC(=O)CC#N)cc3)c2C)cc1 | 5.24% |
| Cc1cccc2cc3c(NC(=O)C(C)C)nn(C)c3nc12 | 17% |

| Structure (SMILES) | hERG current change (%, negative = inhibition) at 1uM |
| --- | --- |
| CC(C)c1nc(SCC(=O)N2CCCC2)c2ccccc2n1 | 3.55% |
| FC(F)(F)c1cc(-c2cccs2)nc(-n2cc(Cl)cn2)n1 | 13.1% |
| O=C(CCSc1ccc(Cl)cc1)c1ccco1 | 7.89% |
| CCOc1ccc(NC(=O)CCCCn2c(=O)[nH]c3ccsc3c2=O)cc1 | -3.89% |
| O=C(/C=C/c1ccccc1Cl)Nc1cccc(O)c1 | 12.3% |
| Cc1ccc2nc(SCC(=O)c3ccc(Cl)cc3)nc(=O)n2c1 | 1.39% |
| Br.c1ccc2c(CCNCc3ccc4c(c3)OCO4)c[nH]c2c1 | 2.83% |
| Cc1cc(C)c(C)c(S(=O)(=O)N2CCN(C(=O)c3ccco3)CC2)c1C | 11.7% |
| O=C(NCCc1ccccc1)c1nc2c(nnn2Cc2ccccc2Cl)c(=O)[nH]1 | -5.71% |
| N/C(Cc1cccc2ccccc12)=N\O | 6.39% |
| COc1cc(Cc2cnc(N)nc2N)cc(OC)c1OC | -4.76% |
| O=C(O)c1cccc(S(=O)(=O)Nc2ccc([N+](=O)[O-])cc2O)c1 | 12.1% |
| Cc1ccccc1C(=O)N1CCC(C(=O)NC(C)c2ccc(-n3ccnc3)cc2)CC1 (centres unmarked) | 9.92% |
| O=C(Nc1cccc2nsnc12)c1ccc2c(c1)OCCO2 | 13.7% |
| CC(C)(C)c1ccc(C(CC(=O)O)NC(=O)c2ccccc2F)cc1 (centres unmarked) | 9.61% |
| COc1ccc(C2=NN(C(=O)CSc3nc4ccccc4s3)C(c3ccc(OC)cc3)C2)cc1 (centres unmarked) | 7.24% |
| Cc1[nH][nH]c(=O)c1N=Nc1ccc(Cl)cc1 | 3.28% |
| Cc1ccc(S(=O)(=O)NC2c3cccc4cccc(c34)C2Sc2nc(C)cc(C)n2)cc1 (centres unmarked) | -3.52% |
| CC(=O)OC1CSC2c3ccccc3C(=O)N2Cc2sccc21 (centres unmarked) | 15.8% |
| Cc1nc2ccc(Br)cn2c1NC(C)(C)C | -5.74% |
| Cc1cc(Nc2ccccc2)n2nc(C)c(-c3ccccc3)c2n1 | 11.1% |
| CCN1C(=O)[C@@H]2[C@H](C1=O)[C@@H]1C[C@H]3C(=O)N(CC)C(=O)[C@H]3[C@@H]3C1=C(C(=O)N1C(=O)OC(=NCC4CC4)[C@]31C)[C@@H]2C | 10.9% |
| COc1ccc(NC(=O)C(CC(=O)O)Cc2ccc(C)cc2)cc1 (centres unmarked) | 11% |

| Structure (SMILES) | hERG current change (%, negative = inhibition) at 1uM |
| --- | --- |
| Cc1cccc(C)c1NS(=O)(=O)c1ccc(-c2ccc(=O)[nH]n2)o1 | 1.65% |
| Cc1ccc(NC(=O)NCCCc2ccccc2)cc1 | 1.8% |
| COc1ccc2oc(C(F)(F)C(F)F)cc(=O)c2c1 | 10.7% |
| NS(=O)(=O)c1ccc(S(=O)(=O)NCCc2ccccc2)cc1 | 10% |
| Cc1c(C(=S)NC(=O)C2CC2)c(=O)n(-c2ccccc2)n1C | 17% |
| O=C(CNCCc1ccccc1)N1CCc2ccccc2C1.O=C(O)C(=O)O | -0.954% |
| Cc1cc(C)n2nc(N)c(N=Nc3ccc(Cl)cc3)c2n1 | 5.64% |
| CC1(C)CC(N(Cc2ccc(F)cc2)C(=O)c2ccc(F)cc2)CCO1 (centres unmarked) | 6.39% |
| CC1CCN(S(=O)(=O)c2ccc(NC(=O)C3CSC4(C)CCC(=O)N34)cc2)CC1 (centres unmarked) | 3.88% |
| CN(C)c1cccc2c(/C=N/O)ccc(N(C)C)c12 | 6.18% |
| Cc1ccc(S(=O)(=O)N2CCN(CC(O)COc3ccccc3)CC2)cc1 (centres unmarked) | 1.6% |
| O=C(CCN1C(=O)C2C3C=CC(C3)C2C1=O)NCc1cccnc1 (centres unmarked) | 3.42% |
| O=C(CN1C(=O)c2ccccc2C1=O)Nc1nccs1 | 10.2% |
| CCCNC(=O)c1ccc(Cn2cc(C(F)(F)F)ccc2=O)cc1 | 4.46% |
| CC(C)(C)c1ccc(OCC(=O)O/N=C(\N)c2ccncc2)cc1 | 6.58% |
| O=C1[C@@H]2Cc3ccccc3CN2C(=O)N1c1cccc(F)c1 | 2.07% |
| Cc1ccc(C)c(NS(=O)(=O)c2cc(C(=O)NCCSC3CCCCC3)ccc2C)c1 | -0.544% |
| O=C(c1cc2ccccc2oc1=O)N1CCCC1 | 14.7% |
| O=C(c1ccc(-c2ccccc2Cl)s1)N1CCOCC1 | 8.25% |
| O=C(NNS(=O)(=O)c1ccc(Cl)cc1)c1cccc(S(=O)(=O)N2CCOCC2)c1 | 18.2% |
| Cc1ccc(C)c(S(=O)(=O)Nc2ccc(O)c(C(=O)O)c2)c1 | 7.6% |
| Cc1cccc(C(=O)N2CCN(Cc3nc4sc5c(c4c(=O)[nH]3)CCCC5)CC2)c1 | -1.96% |
| C=CCNC(=S)N/N=C/c1ccc(-c2cccc([N+](=O)[O-])c2)o1 | 11.9% |

| Structure (SMILES) | hERG current change (%, negative = inhibition) at 1uM |
| --- | --- |
| Cc1ccc(NC(=O)CSc2nc(=O)n(CCCN(C)C)c3c2CCC3)c(C)c1 | -3.12% |
| O=C(N/N=C/c1c(O)n(-c2cccc3ccccc23)c(=O)[nH]c1=O)c1ccncc1 | 10.8% |
| CCOC(=O)c1c(C)n(Cc2ccccc2)c2ccc(OCC(O)Cn3nc(C)cc3C)cc12 (centres unmarked) | 14.1% |
| COc1ccccc1NC(=O)c1cc(Sc2nncn2C)nc2ccccc12 | 13% |
| CCOc1ccc(C(C)NC(=O)Cc2ccccc2)cc1OCC (centres unmarked) | 10.8% |
| COc1cc(C(=O)Nc2sc3c(c2C(=O)NCc2ccco2)CCCC3)cc(OC)c1OC | 12.5% |
| Cc1ccc(CNC(=O)COc2ccccc2-c2ccccc2)cc1 | 6.26% |
| CN(C(=O)CC1C(=O)NCCN1Cc1ccoc1)C1CCOCC1 (centres unmarked) | 12.7% |
| O=c1c2ccccc2nc(-c2ccco2)n1-c1cccnc1 | -1.48% |
| Cc1ccc(C(=O)Cn2nnc(-c3ccccc3-n3cnnn3)n2)cc1 | 2.81% |
| CC(NC(=O)C1CCCN(S(=O)(=O)N2CCOCC2)C1)c1ccccc1 (centres unmarked) | 9.57% |
| O=C(Nc1ccon1)c1ccc(F)c(S(=O)(=O)N2CCCCC2)c1 | 12.5% |
| Cc1c(NC(=O)Nc2cccc(F)c2)c(=O)n(-c2ccccc2)n1C | 4.73% |
| Cc1cc(NC(=O)CCC(=O)N(Cc2cccs2)C(C(=O)NC2CCCC2)c2ccncc2)no1 (centres unmarked) | 10.7% |
| O=C(CCN1C(=O)S/C(=C\c2cccs2)C1=O)NC1=NCCS1 | 2.97% |
| CC(C)(C)C(=O)N1CCc2cc(-c3csc(N)n3)ccc21 | 3.39% |
| Cc1cc(OCC(=O)Nc2nnc(C3CC3)s2)ccc1C(C)C | 11.1% |
| CCN(CC)S(=O)(=O)c1ccc2c(c1)[nH]c(=S)n2CC | 4.13% |
| O=c1[nH]c(=O)n(C2CCCCCC2)c(O)c1C=NC1CCN(Cc2ccccc2)CC1 | -0.59% |
| COc1ccc(S(=O)(=O)N2CCC(C(=O)N3CCCCC3)CC2)cc1Cl | 1.18% |
